Experimental data as given in PubChem BioAssay AID1347043 (National Center for Advancing Translational Sciences (NCATS), 2019).
Out of some 76,000 compounds screened, about 1,900 (2.5%) were called active. Inconclusive results, whose numbers are uncertain, are shown with a selection of clear calls. The call rests on the fitted dose curve; in most records, active means well fitted inhibition curve with a large enough effect; inconclusive means small, poorly fitted or top-dose-only effect; inactive means flat fitted curve, though single readings scatter. Potencies of inconclusive entries are doubtful fits and often do not repeat.

target: Luciferin 4-monooxygenase (Photinus pyralis) (UniProt P08659); experiment: Firefly luciferase inhibition profiling of diverse chemical library using quantitative high-throughput screening; further: nearly all actives have a fitted effect of over 65% in size; conditions: purified P. pyralis luciferase, luminescence, biochemical; series mostly up to 115 µM
Sequence of UniProt P08659 (P08659 whole entry, looked up): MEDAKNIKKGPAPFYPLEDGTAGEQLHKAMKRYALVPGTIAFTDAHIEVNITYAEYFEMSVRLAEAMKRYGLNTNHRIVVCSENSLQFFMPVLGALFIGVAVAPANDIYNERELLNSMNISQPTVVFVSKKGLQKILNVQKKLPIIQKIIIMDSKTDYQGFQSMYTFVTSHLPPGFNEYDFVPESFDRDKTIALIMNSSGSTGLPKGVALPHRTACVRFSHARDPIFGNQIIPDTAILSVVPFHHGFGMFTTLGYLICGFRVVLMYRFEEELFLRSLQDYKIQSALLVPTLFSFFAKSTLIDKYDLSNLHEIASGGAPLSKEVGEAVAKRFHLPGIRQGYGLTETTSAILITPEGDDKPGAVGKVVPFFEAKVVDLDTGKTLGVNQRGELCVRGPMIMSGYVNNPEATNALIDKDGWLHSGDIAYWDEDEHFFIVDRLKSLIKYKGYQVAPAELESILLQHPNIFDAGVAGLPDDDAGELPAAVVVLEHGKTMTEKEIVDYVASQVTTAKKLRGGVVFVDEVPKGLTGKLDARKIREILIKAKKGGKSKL
How it was run: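 Purified 10nM P. pyralis luciferase with 10uM D-luciferin and 10uM ATP in 50mM Tris acetate pH 7.5, 10mM Mg acetate, 0.01% Tween-20, 0.05% BSA. qHTS titration; luminescence read by CCD imager.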
Potency means the concentration at half of the fitted maximal effect; tags describe the fitted curve by direction and shape.

Compound | Potency
CCOc1ccccc1CNC(=O)c1noc(-c2ccc3c(c2)OCO3)n1 | inconclusive: 39.8 µM [inhibitor, partial curve, poor fit]
O=C(Nc1ccc(Cl)cc1)c1cc(-c2ccc[nH]2)n[nH]1 | inconclusive: 10 µM [inhibitor, full curve]
O=C(NCCc1ccccc1)c1noc(-c2ccc3c(c2)OCO3)n1 | inconclusive: 44.7 µM [inhibitor, partial curve]
O=C(Nc1ccccc1)C1CCN(C(=O)N2CC3CC(C2)[C@H]2CCCC(=O)N2C3)CC1 (stereo not given in full) | inactive
COc1cc(C(=O)NC[C@@H]2CC[C@H]3C[C@@H]2C3(C)C)nc2ccccc12 | inactive
CCCN(C)C(=O)CC1COCCN1C(=O)Nc1cccc(SC)c1 (stereo not given) | inconclusive: 79.4 µM [inhibitor, single point]
CCc1cccc2c(C(CC(=O)NCCc3ccccc3)c3ccc(OC)c(OC)c3)c[nH]c12 (stereo not given) | inconclusive: 39.8 µM [inhibitor, partial curve]
CC(C)(C)CC(=O)N1CCC2(CCC(=O)N(CC3CC3)CC2)CC1 | inactive
Cc1nc(C)c(C(=O)N2CC(Oc3cccc(-c4nc(-c5ccccc5)no4)c3)C2)s1 | inconclusive: 22.4 µM [inhibitor, partial curve]
COCCc1noc(C2Cc3ccccc3N2C(=O)Nc2ccc(C)c(C)c2)n1 (stereo not given) | inconclusive: 44.7 µM [inhibitor, partial curve]
Cc1noc(C)c1-c1cnc(Nc2ccc(F)c(Cl)c2)c2c1CCO2 | active: 14.1 µM
CSc1ccc(NC(=O)c2ccc3c(c2)N(C)C2CCCCCN2C3=O)cc1 (stereo not given) | inconclusive: 25.1 µM [inhibitor, full curve]
COc1ccc(-c2noc(-c3nc(C)no3)n2)c(OC)c1 | inconclusive: 20 µM [inhibitor, full curve]
CN(C(=O)CCc1nc2ccccc2[nH]1)C1CCc2nn(C)c(=O)n2CC1 (stereo not given) | inactive
Cn1c2c(c3ccccc31)CN(C(=O)Nc1cccc(Br)c1)CC2 | inconclusive: 50.1 µM [inhibitor, partial curve, poor fit]
COC1CCCN(C(=O)c2cc(-c3ccc(F)cc3)cc3ncn(C)c23)C1 (stereo not given) | active: 25.1 µM
CC(C)n1cc(CN(C)C(=O)c2cc(COc3ccccc3)on2)cn1 | inconclusive: 70.8 µM [inhibitor, single point]
CCCCN(Cc1ccccc1)Cc1nc(-c2ccc(C(=O)OC)cc2)no1 | active: 8.91 µM
CCCS(=O)(=O)N1CCC2(CC1)NCCc1c2[nH]c2ccccc12 | inactive
c1ccc(-n2cc(CN3CCCN(Cc4cccs4)CC3)nn2)cc1 | inactive
O=C1c2cnc(-c3ccccc3)nc2OCCN1Cc1ccccc1 | active: 11.2 µM
O=C(O)C1(Cc2ccccc2F)CCCN(c2ncccn2)C1 (stereo not given) | inactive
Cc1cccc(C(=O)N2CCC3(CC2)c2nc[nH]c2CCN3CC(C)C)n1 | inactive
Cc1ccc(-c2cn3c(n2)CO[C@@H](CNC(=O)CCC(=O)O)C3)cc1 | inconclusive: 89.1 µM [inhibitor, partial curve]

Compound | Potency
O=c1n(-c2cccc(Cl)c2)nc2n1CCN(Cc1ccc(F)cc1)C2 | inconclusive: 35.5 µM [inhibitor, partial curve]
COc1cncc(Nc2ncc(-c3ccccc3)c3c2OCC3)c1 | inconclusive: 44.7 µM [inhibitor, partial curve]
CC1(NC(=O)C2CC2)CN(Cc2nc(-c3ccc(Oc4ccccc4)cc3)cs2)C1 | inconclusive: 63.1 µM [inhibitor, full curve]
CN(C)c1ccc(-c2noc([C@@H]3CCCN3Cc3cnc4ccccc4c3)n2)cn1 | active: 14.1 µM
Cc1ccc(-c2noc([C@@H]3Cc4nc[nH]c4CN3C(=O)CCCC(=O)O)n2)cc1 | inconclusive: 89.1 µM [inhibitor, partial curve, poor fit]
C[S+](=O)([O-])CCn1ncc2cc(OCc3cccc(-c4ccccc4F)c3)ccc21 | active: 15.8 µM
O=C(N[C@H]1CO[C@H]2[C@@H]1OC[C@@H]2n1nnnc1Oc1ccc2c(c1)OCO2)c1ccc(C(F)(F)F)cc1 | inactive
CC(Oc1ccccc1)C(=O)N1CCC(n2cc(-c3nc(-c4ccccc4)no3)nn2)C1 (stereo not given) | inconclusive: 44.7 µM [inhibitor, partial curve]
CCc1ccc(NC(=O)N2CCc3c(nc4cc(-c5ccc(OC)cc5)[nH]n4c3=O)C2)cc1 | inconclusive: 14.1 µM [inhibitor, full curve]
COc1cc(-c2nc3cc4[nH]c(=O)[nH]c4cc3[nH]2)cc(OC)c1O | inconclusive: 44.7 µM [inhibitor, partial curve]
CCCCN(C)C(=O)c1c(C)sc2ccn(CCC)c(=O)c12 | inactive
CC(C)(C)c1ccc(-c2cc(C[C@H]3CNCC[C@H]3CC(=O)O)no2)cc1 | inconclusive: 79.4 µM [inhibitor, partial curve]
O=C(c1cc2ccccc2[nH]1)N1CCCC(n2cc(-c3nc(-c4ccccc4)no3)nn2)C1 (stereo not given) | inconclusive: 22.4 µM [inhibitor, partial curve, poor fit]
Cc1ccc(-c2cn3c(n2)CO[C@@H](CNC(=O)c2ccccc2)C3)cc1 | inconclusive: 63.1 µM [inhibitor, full curve]
CCC(O)C(=O)N1CCc2onc(-c3ccc(-c4ccccc4)cc3)c2C1 (stereo not given) | inactive
Cc1ccc(-n2c(C3CCN(C(=O)c4c(F)cccc4Cl)CC3)n[nH]c2=O)cc1 | inactive
CC1(COc2cccnc2)COc2ccc(C(=O)Nc3ccc4[nH]ccc4c3)cc2N1 (stereo not given) | active: 39.8 µM
Clc1cccc(Nc2cc3c(cn2)CN(Cc2cccnc2)CCN3)c1 | active: 1.26 µM
Cc1ccc(NC(=O)CN2C(=O)NC(c3ccccc3Cl)C3=C2COC3=O)cc1C (stereo not given) | inconclusive: 10 µM [inhibitor, full curve]
COc1cc(CNc2nc(-c3c(C)noc3C)cc3cc(C)oc23)cc(OC)c1 | inactive
O=C(O)c1ccnc(-c2ccnc(NCC(O)c3ccccc3Cl)n2)c1 (stereo not given) | active: 31.6 µM
COC(=O)c1ccc2nc(CO[C@H]3CN(Cc4ccc5c(c4)OCO5)C[C@H]3F)[nH]c2c1 | inactive
O=C(NC1CCOCC1)c1ccnc(-c2nnc3ccc(Nc4ccccc4)nn23)c1 | inactive
CC(C)(C)CC(=O)N[C@H]1C[C@H]2C(=O)Nc3cc(Cl)ccc3C(=O)N2C1 | inactive

Compound | Potency
CCCN1CCN(C(=O)C2(c3ccc(NC(=O)C(C)C)cc3)CCCCC2)CC1 | inactive
COc1ccccc1-c1ccnc(-c2nnc(C)n2Cc2ccccc2)c1 | inconclusive: 79.4 µM [inhibitor, partial curve]
Cc1ccc(-c2noc([C@@H]3Cc4nc[nH]c4CN3C(=O)c3ccccc3)n2)cc1 | active: 39.8 µM
Cc1ccc(C2Cn3cnc(C(=O)N4CCC(C(=O)NCc5ccccc5C)CC4)c3CO2)cc1 (stereo not given) | inconclusive: 39.8 µM [inhibitor, partial curve]
O=C(CCc1ccccc1)N1CC(Oc2ccc(-c3nc(-c4ccccc4)no3)cc2)C1 | inconclusive: 20 µM [inhibitor, full curve]
O=C(NC1CCCN(c2cc(-c3ccc(F)cc3)[nH]n2)C1)c1ccc(Br)o1 (stereo not given) | inconclusive: 39.8 µM [inhibitor, partial curve]
O=C(COc1ccccc1)N1CCCC(c2noc(COc3ccccc3F)n2)C1 (stereo not given) | inconclusive: 50.1 µM [inhibitor, partial curve, poor fit]
COc1ccc(S(=O)(=O)NC[C@@H]2C=C(C)[C@H](CC(=O)N3CCN(c4ccccn4)CC3)C[C@H]2C(C)C)cc1 | inactive
Cn1cnc(C(=O)N2CCC(OC3CCN(S(C)(=O)=O)CC3)CC2)c1 | inconclusive: 39.8 µM [inhibitor, partial curve]
O=C(CCC1CCN(S(=O)(=O)c2ccccc2)CC1)N1CCc2ccccc2C1 | inactive
COc1ccccc1Oc1ncccc1CNC(=O)c1ccccc1SC | active: 31.6 µM
O=c1c2c(CO)c(-c3ccccc3)nn2ccn1CCc1ccccc1 | inconclusive: 39.8 µM [inhibitor, partial curve]
Cc1ccc(NC(=O)c2ccc3c(c2)N(C)C2CCCN2C3=O)cc1 (stereo not given) | active: 22.4 µM
Cc1ccc(CN2C(=O)[C@@H]3C[C@@H](O)CN3C3(CN(C(C)C)C3)C2=O)o1 | inactive
COc1ccc(NC(=O)Nc2ccc(C)n(CC(=O)O)c2=O)cc1 | active: 3.98 µM
CC(C)c1noc(-c2cccn3c(CNC(=O)c4nccc5ccccc45)nnc23)n1 | inactive
COCCNC(=O)CCCN1C(=O)COc2ccc(C(=O)COc3ccc(C)cc3C)cc21 | inconclusive: 44.7 µM [inhibitor, partial curve, poor fit]
Cc1cc2nc(CO[C@H]3CN(Cc4ccc(C(=O)O)cc4)C[C@H]3F)[nH]c2cc1C | active: 22.4 µM
O=C(CN1CCOC(c2ccc(F)cc2)C1)NCc1ccccn1 (stereo not given) | inactive
Cc1ccc(C(=O)NCCn2ccn3nc(-c4ccc(F)cc4)cc3c2=O)s1 | inconclusive: 2.82 µM [inhibitor, full curve]
CC(Oc1ccccc1)C(=O)N1CC(Oc2cccc(-c3nc(-c4ccccc4)no3)c2)C1 (stereo not given) | inconclusive: 14.1 µM [inhibitor, full curve]
CCn1nc(C)c(-c2cc(C(=O)NCCc3noc(-c4ccccc4)n3)no2)c1C | inconclusive: 35.5 µM [inhibitor, partial curve, poor fit]
